# Data taken from the supplement of paper PMC11417369.
# ± gives the standard deviation of the averaged measurements. Some of the results follow.
# Tested on: PfAP2-LT AP2 domain (GST-tagged)
# Assay: gcPBM binding intensity (ln(normalized median fluorescence intensity)); higher = stronger DNA binding
# Method in brief: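 Probes on an Agilent 4 × 180k array were primer-extended, double-stranded and 36 bp long, taken from intergenic genomic regions, with negative controls added. GST-tagged P. falciparum DNA-binding domains from E. coli, about 25 μg on average, were applied to the array for 1 h in 1× PBS containing 1% milk, 0.2 mg/ml BSA, 0.5% salmon testes DNA and 0.03% Triton X-100. Binding intensity, obtained after Alexa488 anti-GST antibody detection and a 488 nm scan, is the highest Masliner-normalised natural-log median intensity across replicate spots of either probe orientation.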
row,Sequence,gcPBM binding intensity (ln)
1,TTTCTATAATATTCTACACACCAACAACAAACATAT [CACACA_site6409],8.96 ± 0.28
2,TTTAAATATATTAATACACACACGATATGTACAAAA [CACACA_site539],9 ± 0.4
3,AAAAAATTTTGAAATTGTACATATATAAAAAATATA [XGTACX_site2629],8.47 ± 0.48
4,GAATAAATTGTATTGTGTACATATAAAAGCATCTAA [XGTACX_site8271],8.8 ± 0.4
5,CTGTACACTTAAACGGTGCAAAAAGAAAAAAAAGAA,8.8 ± 0.54
6,GTTGGGTAATTCGTAACACACATAAAATATATATAA [CACACA_site3986],8.88 ± 0.57
7,CACGCGCACCAACACACACACACACCCATATATATA [CACACA_site2204],10.3 ± 0.4
8,TGCCTATGACATGAATGTACATTAAAATTAAATAAA [XGTACX_site7126],8.59 ± 0.54
9,AGACATATTCTTTTTACACACTTGAATAAAAAATAT [CACACA_site1205],8.64 ± 0.4
10,CATTTTATAAAAACAAGTACCCAACATATATATAAT [XGTACX_site5955],8.75 ± 0.41
11,TTTTTTTCTTAAAGATGTACTTTTTAAAAACAATCT [XGTACX_site986],8.22 ± 0.67
12,GATGAGGACAGACACACACACATAAGTTGATACATA [CACACA_site7580],9.62 ± 0.44
13,GTTTTTACTTTTATCTGTACATAATACTACCAATAT [XGTACX_site5414],8.86 ± 0.46
14,TATATATTAAGATGCACACACAAGAAGTAATTATAA [CACACA_site5726],9.25 ± 0.37
15,ATTTTTTCTTATAAAAAAGAAAAAGAAAAAGAAAAA [CACACA_negctrl_site1216],8.02 ± 0.42
16,ACAGCTCTAGGACATGCATGTTATATAGAAAAAGAG [TGCATGCA_site703],8.94 ± 0.5
17,TTCTTTATATAAACAAGTACATATAAAATACATATA [XGTACX_site8036],8.43 ± 0.38
18,AAGTTAATGTTTTGCGCACACTTCTTTTTAATATAA [CACACA_site3938],9.29 ± 0.35
19,TTCATTAAAGTTATTACACACAGTTCTTCAACCAAA [CACACA_site7613],8.77 ± 0.42
20,AAATACATATTTAGAAGTACATTTATACATTTAATA [XGTACX_site8871],8.64 ± 0.39
21,TATAATTTTTTTGAATTATATATATATATATATAAT [XGTACX_negctrl_site26],8.6 ± 0.27
22,ATAATATTATGAACCTGTACATAATTTTTCTTTTCT [XGTACX_site3377],8.62 ± 0.51
23,TGATATAAAATTAAAGTGCAAAAAAAAAATAAAAAA,8.8 ± 0.54

row,Sequence,gcPBM binding intensity (ln)
1,AGTATATTTCTAACTTGTACGAAATTAATAATTTAT [XGTACX_site6635],8.48 ± 0.45
2,TATATATAATATGAATGTACACAAAAAGGTAATACA [XGTACX_site6202],9.11 ± 0.62
3,AAAAAAAAGAAATAGACACACATATATTTTTAAACA [CACACA_site3954],8.73 ± 0.61
4,TAAGGGAGAGATTTGTATCATAAGCAACTTTCAAAA [CACACA_negctrl_site1436],8.48 ± 0.35
5,TTATAATTAAATTTCACACAGTTCATAACATAATTA [CACACA_site5501],8.47 ± 0.42
6,TTTATATGTTTTAAGTGTACACATATAATGTATTTT [XGTACX_site3069],8.78 ± 0.46
7,ACTTTCAACATGAAGTTGCACTTTTTTTTTTTTCTT,8.79 ± 0.49
8,AGCCCTTTTTTTTTTTAGAATATTGCATAATTATAT [XGTACX_negctrl_site546],8.79 ± 0.36
9,TATATAAATATATCCACACACATACCTATATTAATA [CACACA_site6184],9.24 ± 0.25
10,GTATTGTATGGATGGGGTACTATATATATATATTTT [XGTACX_site1694],9.37 ± 0.14
11,AGACAATATTAATAAGGTACACATATATATTAAAAA [XGTACX_site6709],8.87 ± 0.57
12,TAATTAAATAAAAAAAAATATATATATATATATATA [XGTACX_negctrl_site616],9.46 ± 0.25
13,TTTTTTAAAAATAACTGTACAGAGGCTGTTAGGATA [XGTACX_site2521],8.57 ± 0.43
14,TCCATATGCATGTATTGTACTGTAATATATTAAAAA [XGTACX_site472],8.56 ± 0.24
15,AAAAAAAAAAAAGAAACACACACATATATATATATA [CACACA_site8525],9.94 ± 0.3
16,AGCAGTCGACAGGACAGTACACAGTAGCCAGGAAAT [XGTACX_site4929],9.25 ± 0.49
17,TAAATATATAAATACACACACACCAAAGCAATAGAT [CACACA_site5605],9.985 ± 0.078
18,TTTGATAATAAGATATAATACTTAAATATATATATA [GTGCAC_negctrl_site339],8.4 ± 0.38
19,TATTTTACGCGGTTTATAATGACATGTTCTATATTT [CACACA_negctrl_site1184],9.01 ± 0.45
20,AAATATATATTCAAAAGTACACAATTTGTTAATAAT [XGTACX_site8917],8.77 ± 0.39
21,CACACTTGCTCCTGTTGTACATAACCATAAGCAACA [XGTACX_site2102],8.79 ± 0.4
22,TGAATATAACAAATATGTACTTAAAATTGTTATATT [XGTACX_site5679],8.54 ± 0.46
23,ATTATTAAAAATATGGGTACATATTATTGTTATATA [XGTACX_site1958],8.56 ± 0.43

row,Sequence,gcPBM binding intensity (ln)
1,AAAAAAAAAAAAAAATGTACATGACATGACATGACA [XGTACX_site4020],8.68 ± 0.45
2,TTATATTTTACAAATGCACACATAATTTTTTTTTTT [CACACA_site8890],8.84 ± 0.54
3,AAACTTTACATTACTTGTACATATATTCTATATAAT [XGTACX_site8640],9.05 ± 0.41
4,TAAAGAAATAAATACATACACACATATATATATATA [CACACA_site3363],9.64 ± 0.15
5,TTATAAATAATGAGAAACATTAAATTTAATCATAAA [CACACA_negctrl_site523],8.36 ± 0.47
6,TTTAGTGTTATAAAAAGTACATAATAATTCCTTTTC [XGTACX_site3208],8.37 ± 0.47
7,AAAAATTCAATAGGACGTACTAAAACATTCATTAAT [XGTACX_site1712],8.84 ± 0.36
8,TACTATATATATATATATATATATATATATATTTAT [GTGCAC_negctrl_site593],9.15 ± 0.15
9,AAAATGTAATATTGGGTGCACAATAAGTTTGATGTC,9.14 ± 0.47
10,TAGTATTAAATATATACACACATATATACCTATAGA [CACACA_site5219],8.95 ± 0.45
11,TGAAAAGATAAAAAAAGTACACACACACATATATAT [XGTACX_site6504],9.765 ± 0.021
12,TTATATAAAGAATGTACACACAGAAATGCACAGACA [CACACA_site5288],9.2 ± 0.44
13,AATATGTACAGACATACACACATATTTATATTTATA [CACACA_site6694],9.05 ± 0.39
14,GCTTATATTAATAAGGTGCTTTTTATTTCGTGTGTA [GTGCAC_site9649],9.05 ± 0.37
15,TCATAGTATAAACACACACACACACCCATATATATA [CACACA_site8512],10.1 ± 0.31
16,AGAATGGTTTATAAAGGTACGTAATTTTTAATTTTA [XGTACX_site383],8.54 ± 0.54
17,ATATGTCCATATAGTAAATGTTACATTTTAAAGCGC [XGTACX_negctrl_site168],8.8 ± 0.39
18,AAAATATTTATTTTTTGTACACATAAAAACGCACTT [XGTACX_site4132],8.71 ± 0.45
19,CATATTTTGTGAAAAAGTACATATATATATATATAT [XGTACX_site6295],9.63 ± 0.2
20,ATTCTTAAAAAATAAGTGCAAAATAATTAAATAAAT,8.69 ± 0.47
21,AAACGTATTCTATAAAGTACATTATTATAGTAGACC [XGTACX_site8068],8.78 ± 0.39
22,TATTGAATAAAATGCACACGCATGCGTTATTTATTA [CACACA_site3479],9.02 ± 0.35
23,TAAAAAAATTATATTTGTACATATTAATATAGCCTT [XGTACX_site4833],8.56 ± 0.34

row,Sequence,gcPBM binding intensity (ln)
1,GATTTTTTTTTTTTTTCACACACTAATAATATTATC [CACACA_site464],9.1 ± 0.44
2,TGTTTATGTATCAATTGTACAAAAAAAAAAAAAAAA [XGTACX_site1590],8.32 ± 0.49
3,TTCAAAAAAATGTATACACACATAAGTATAATATAA [CACACA_site3758],8.86 ± 0.53
4,ATAAATGAAAAAAAGCGTACATATAAAAAAATATAT [XGTACX_site5063],9.02 ± 0.44
5,ACTTACCCATTTATTACACACATAAAGGAAAATTTT [CACACA_site4873],8.95 ± 0.4
6,TGTAAATAATATAATAGTACGCATATTTTTATTGAA [XGTACX_site284],8.68 ± 0.52
7,CTTATGTGCATACCTACACACTTACAGATATATATA [CACACA_site5622],8.87 ± 0.43
8,TAGGAAGAATTACTGTGTACTAAAATATTAAAAAGT [XGTACX_site4909],8.72 ± 0.55
9,TTCAAATATTTTATTTGTACATAAAAAAGAAAGTTA [XGTACX_site8287],8.31 ± 0.57
10,CATAAGAAAATAAAAACATGCACATAAGAAATATAC [TGCATGCA_site842],9.22 ± 0.52
11,AATCTTCATACCAACACATGCACAAAAGAAATAAAA [TGCATGCA_site563],8.99 ± 0.45
12,ATATAAATATATGGAAGTACACAAAAAAATTAAAAA [XGTACX_site8624],8.78 ± 0.68
13,TATATTTATACATATTGTACATTTTATACTTTTACA [XGTACX_site3884],8.88 ± 0.42
14,ATTTATAATCAGGGTTGTACACTTATAGAATTTTTA [XGTACX_site4175],8.57 ± 0.45
15,GTCGCATTTTATACAAGTACACATGAATTATACAAC [XGTACX_site2200],8.87 ± 0.36
16,TAAATAATATCTATCACACACGCATATATACATATA [CACACA_site2622],9.07 ± 0.38
17,ATTATTAAAAAGATGTAAATAAATGAATATATGCTT [CACACA_negctrl_site539],8.65 ± 0.49
18,ATATAGTATAATAAAAGTACATTTTGATTTTTTCTC [XGTACX_site1797],8.44 ± 0.48
19,TATTAAGAATTTACATGTACTTGTTAAATAAGAAAA [XGTACX_site4466],8.37 ± 0.42
20,TTCTATATATTTTAATGTACATATATGATTATTCTT [XGTACX_site8294],8.82 ± 0.49
